{"source": "PubChem BioAssay AID504333", "about": "(National Center for Advancing Translational Sciences (NCATS), 2011)", "note": "The campaign covered roughly 360,000 compounds. About 16,000 (4.4%) were called active. This list was built around the results that the source calls inconclusive (neither active nor inactive); the mix of calls is not that of the screen. Calls follow the shape of the dose curve; as a rule, active = well fitted inhibition curve with a large enough effect; inconclusive = small, poorly fitted or top-dose-only effect; inactive = no such curve, though single readings can be large or run the other way. Potencies of inconclusive entries are doubtful fits and often do not repeat. Where a structure was tested more than once in an assay, its records may differ in their call. Potency is read from the fitted curve at half-maximal effect; tags tell the direction and shape of the fitted curve.", "data": [{"biological_target": "Bromodomain adjacent to zinc finger domain protein 2B (Homo sapiens) (UniProt Q9UIF8)", "sequence (Q9UIF8 whole entry, looked up, the tested form may be a part)": "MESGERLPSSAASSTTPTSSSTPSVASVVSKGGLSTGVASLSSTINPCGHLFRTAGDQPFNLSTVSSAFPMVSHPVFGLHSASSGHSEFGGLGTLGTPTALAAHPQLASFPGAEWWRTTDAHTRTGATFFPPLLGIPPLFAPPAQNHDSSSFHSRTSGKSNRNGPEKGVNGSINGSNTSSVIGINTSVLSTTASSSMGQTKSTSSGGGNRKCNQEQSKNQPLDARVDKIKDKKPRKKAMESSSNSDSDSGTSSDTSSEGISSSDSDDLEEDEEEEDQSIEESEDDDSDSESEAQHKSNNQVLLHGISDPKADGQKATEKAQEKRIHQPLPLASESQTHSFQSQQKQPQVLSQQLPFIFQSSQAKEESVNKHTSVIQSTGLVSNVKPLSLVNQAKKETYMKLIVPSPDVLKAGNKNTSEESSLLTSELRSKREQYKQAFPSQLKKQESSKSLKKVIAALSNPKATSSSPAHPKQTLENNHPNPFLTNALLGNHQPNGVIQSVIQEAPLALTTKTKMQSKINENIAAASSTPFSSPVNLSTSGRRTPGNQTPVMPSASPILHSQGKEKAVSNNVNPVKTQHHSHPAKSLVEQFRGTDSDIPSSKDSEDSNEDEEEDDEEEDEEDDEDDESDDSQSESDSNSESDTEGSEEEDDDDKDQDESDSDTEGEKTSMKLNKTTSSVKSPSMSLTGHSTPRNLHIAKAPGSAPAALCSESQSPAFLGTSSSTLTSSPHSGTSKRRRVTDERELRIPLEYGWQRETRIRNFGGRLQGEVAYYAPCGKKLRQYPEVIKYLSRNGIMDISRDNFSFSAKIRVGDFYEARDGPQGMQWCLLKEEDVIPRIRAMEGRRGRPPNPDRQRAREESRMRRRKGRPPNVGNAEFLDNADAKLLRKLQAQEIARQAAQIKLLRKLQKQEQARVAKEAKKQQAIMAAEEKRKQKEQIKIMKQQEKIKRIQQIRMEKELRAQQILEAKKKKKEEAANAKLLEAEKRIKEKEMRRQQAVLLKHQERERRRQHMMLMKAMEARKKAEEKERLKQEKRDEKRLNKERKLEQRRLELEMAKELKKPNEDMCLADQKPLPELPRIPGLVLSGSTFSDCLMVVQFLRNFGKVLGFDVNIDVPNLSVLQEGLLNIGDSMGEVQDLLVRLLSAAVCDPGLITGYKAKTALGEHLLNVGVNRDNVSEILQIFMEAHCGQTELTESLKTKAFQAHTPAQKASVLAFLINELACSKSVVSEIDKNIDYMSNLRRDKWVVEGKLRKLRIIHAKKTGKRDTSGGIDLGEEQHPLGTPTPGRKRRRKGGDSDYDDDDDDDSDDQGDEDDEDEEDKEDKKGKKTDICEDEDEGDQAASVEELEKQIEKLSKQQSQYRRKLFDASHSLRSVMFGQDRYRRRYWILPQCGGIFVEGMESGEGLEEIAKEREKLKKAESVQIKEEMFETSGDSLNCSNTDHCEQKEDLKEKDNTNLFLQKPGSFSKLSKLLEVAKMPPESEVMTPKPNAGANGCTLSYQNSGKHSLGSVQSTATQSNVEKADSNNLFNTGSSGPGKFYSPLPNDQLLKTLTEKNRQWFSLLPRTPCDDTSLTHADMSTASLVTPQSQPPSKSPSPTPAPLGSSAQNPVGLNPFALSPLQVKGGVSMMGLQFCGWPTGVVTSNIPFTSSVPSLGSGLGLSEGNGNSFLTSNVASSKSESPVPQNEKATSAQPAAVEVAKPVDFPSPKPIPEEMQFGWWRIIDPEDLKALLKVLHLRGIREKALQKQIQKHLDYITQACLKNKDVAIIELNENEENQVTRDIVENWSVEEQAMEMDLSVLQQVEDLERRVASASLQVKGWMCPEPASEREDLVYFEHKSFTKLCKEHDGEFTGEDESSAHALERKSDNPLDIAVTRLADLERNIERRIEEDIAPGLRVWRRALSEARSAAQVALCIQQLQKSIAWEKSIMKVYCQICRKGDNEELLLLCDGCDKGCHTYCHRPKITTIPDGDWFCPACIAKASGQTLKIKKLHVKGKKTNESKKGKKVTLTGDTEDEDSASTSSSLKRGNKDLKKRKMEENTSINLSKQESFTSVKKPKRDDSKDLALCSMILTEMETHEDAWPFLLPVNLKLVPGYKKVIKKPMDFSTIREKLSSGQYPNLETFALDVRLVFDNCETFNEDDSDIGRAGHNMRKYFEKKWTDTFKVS", "assay": "qHTS Assay for Inhibitors of BAZ2B; also: nearly all actives have a fitted effect of over 60% in size", "conditions": "AlphaScreen BAZ2B-H3K14Ac peptide displacement; series mostly up to 114 µM", "how_it_was_run": "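BAZ2B 50 nM plus b-H3(5-23)K14Ac 50 nM, PBS pH 7.4/0.01% Tween-20, 30 min RT; compound added (max 110 uM), 30 min RT; streptavidin donor/Ni-chelate acceptor beads 10 ug/mL final, 20 min dark; AlphaScreen read.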", "values": [{"smiles": "c1ccc(CCN(Cc2ccccc2)C2CCN(C3CCCC3)CC2)cc1", "Potency": "active: 50.1 µM"}, {"smiles": "O=[N+]([O-])c1ccc(N2CCN(Cc3ccc(Br)o3)CC2)cc1", "Potency": "active: 79.4 µM"}, {"smiles": "Cn1cnc(S(=O)(=O)Nc2ccccc2N2CCOCC2)c1", "Potency": "inactive"}, {"smiles": "CN(C(=O)c1ccccn1)c1nnc(-c2cccnc2)s1", "Potency": "inconclusive: 79.4 µM [inhibitor, single point]"}, {"smiles": "O=C(NC12CC3CC(CC(C3)C1)C2)c1ccc(COc2ccc(Cl)cc2[N+](=O)[O-])o1", "Potency": "inconclusive: 79.4 µM [inhibitor, single point]"}, {"smiles": "N#C/C(=C/c1cn(CC(=O)O)c2ccccc12)C(=O)NCc1ccccc1", "Potency": "inconclusive: 79.4 µM [inhibitor, single point]"}, {"smiles": "Nc1nonc1-n1nnc(C(=O)N/N=C/c2ccccc2)c1CN1CCc2ccccc21", "Potency": "inconclusive: 79.4 µM [inhibitor, single point]"}, {"smiles": "O=C(COC(=O)c1ccc[n+]([O-])c1)Nc1c(Br)cc([N+](=O)[O-])cc1Br", "Potency": "inconclusive: 70.8 µM [inhibitor, single point]"}, {"smiles": "O=C(CCCN1C(=O)/C(=C/c2ccco2)SC1=S)Nc1ccccc1", "Potency": "inconclusive: 44.7 µM [inhibitor, partial curve]"}, {"smiles": "CN=c1scc(-c2ccccc2F)n1/N=C(\\C)c1cccnc1", "Potency": "active: 35.5 µM"}, {"smiles": "Cc1ccnc(NC(=O)CCCc2c[nH]c3ccccc23)c1", "Potency": "inconclusive: 25.1 µM [inhibitor, full curve, poor fit]"}, {"smiles": "Oc1ccccc1/C=N/NC(=S)NC1CC2CCC1C2", "note": "(stereo unspecified)", "Potency": "inconclusive: 17.8 µM [inhibitor, full curve]"}, {"smiles": "O=S(=O)(NC1CCCCC1Nc1ccccc1)c1ccccc1", "note": "(stereo unspecified)", "Potency": "inactive"}, {"smiles": "Cc1c(-c2cccc(NC(=O)Nc3ccccc3)c2)nc2ncccn12", "Potency": "inactive"}, {"smiles": "Cc1ccc(-c2cc(-c3coc4ccccc4c3=O)c3c(n2)-c2ccccc2OC3)cc1", "Potency": "inactive"}, {"smiles": "CCOc1ccc(-n2c(Cc3cc(=O)[nH]c(=O)[nH]3)nnc2SCC(N)=O)cc1", "Potency": "inconclusive: 89.1 µM [inhibitor, single point]"}, {"smiles": "Cc1c(C(=O)Nc2ccc(-c3nc4cc(Cl)ccc4o3)cc2)oc2ccccc12", "Potency": "inactive"}, {"smiles": "COc1ccccc1N1CCN(S(=O)(=O)c2ccc3c(c2)n(C)c(=O)n3C)CC1", "Potency": "inconclusive: 79.4 µM [inhibitor, partial curve]"}, {"smiles": "COc1ccc(C(=O)Nc2ccccc2C(=O)N2CCCCCC2)cc1OC", "Potency": "inactive"}, {"smiles": "Cc1ccc(C2C3=C(CC(C)(C)CC3=O)NC3=C2C(=O)c2ccccc23)cc1", "note": "(stereo unspecified)", "Potency": "active: 31.6 µM"}, {"smiles": "CCOc1ccc(-c2nc(N)ncc2-c2ccccc2OC)c(O)c1", "Potency": "inconclusive: 3.55 µM [inhibitor, full curve, poor fit]"}, {"smiles": "CCOc1ccc(CNC(=O)C2CCN(S(=O)(=O)c3ccc4c(ccn4C)c3)CC2)cc1", "Potency": "inactive"}, {"smiles": "COC(=O)c1cccc(-n2sc3ccccc3c2=O)c1", "Potency": "active: 6.31 µM"}, {"smiles": "CC(=O)N1c2ccc(S(=O)(=O)N3CCN(c4cc(Cl)ccc4C)CC3)cc2CC1C", "note": "(stereo unspecified)", "Potency": "inactive"}, {"smiles": "CCOC(=O)c1ccccc1NC(=O)c1ccc2c(SCC(=O)O)c3c(nc2c1)CCCC3", "Potency": "active: 50.1 µM"}, {"smiles": "COc1ccccc1NC(=O)C(=O)c1cn(CC(=O)N2CCCC2)c2ccccc12", "Potency": "inconclusive: 70.8 µM [inhibitor, single point]"}, {"smiles": "CCC(C)Sc1nc2c([nH]c3ccccc32)c(=O)n1C", "note": "(stereo unspecified)", "Potency": "inactive"}, {"smiles": "COc1ccc(N=c2ssnc2Cl)cc1", "Potency": "active: 44.7 µM"}, {"smiles": "CC(=O)Nc1ccc(Nc2nc(-c3sc(NC(C)=O)nc3C)cs2)cc1", "Potency": "active: 50.1 µM"}, {"smiles": "O=C(Nc1ccc(O)cc1C(=O)O)c1ccc2c(c1)C(=O)N(Cc1ccco1)C2=O", "Potency": "active: 50.1 µM"}, {"smiles": "CCn1c(C)c(/C=N/Nc2nc3ccccc3s2)c2ccccc21", "Potency": "active: 15.8 µM"}, {"smiles": "Cc1ccc(S(=O)(=O)C(C#N)c2nc3ccccc3nc2N2CCN(C)CC2)cc1C", "note": "(stereo unspecified)", "Potency": "inconclusive: 79.4 µM [inhibitor, single point]"}, {"smiles": "C=CCc1ccccc1OCC(O)CNC1CCCC1", "note": "(stereo unspecified)", "Potency": "inactive"}, {"smiles": "Fc1ccc(SCCc2ccncc2)cc1", "Potency": "active: 22.4 µM"}, {"smiles": "CC(C)(C)OC(=O)NC1CC2CCCC(C1)N2Cc1ccccc1", "note": "(stereo unspecified)", "Potency": "inactive"}, {"smiles": "COc1ccc(N(/N=C2\\Sc3ccccc3C2=O)C(C)=O)cc1", "Potency": "inconclusive: 50.1 µM [inhibitor, partial curve]"}, {"smiles": "COc1cc2[nH]c(=S)n(NC(=O)CC(C)C)c(=O)c2cc1OC", "Potency": "inconclusive: 89.1 µM [inhibitor, single point]"}, {"smiles": "Cc1nnc(C)c2c(C)n(Cc3ccc4c(c3)OCO4)c(C)c12", "Potency": "inactive"}, {"smiles": "COc1ccc(CNc2nc(-c3ccco3)nn2S(=O)(=O)c2ccc3ccccc3c2)cc1OC", "Potency": "inconclusive: 25.1 µM [inhibitor, partial curve]"}, {"smiles": "CN1C(=O)N(C)c2ccc(Br)c3cccc1c23", "Potency": "inactive"}, {"smiles": "CCN(CC)C(=O)C1CCCN(C(=O)c2oc3ccc(C)cc3c2C)C1", "note": "(stereo unspecified)", "Potency": "inactive"}, {"smiles": "CC(OC(=O)CNC(=O)C12CC3CC(CC(C3)C1)C2)C(=O)Nc1ccc(S(N)(=O)=O)cc1", "note": "(stereo unspecified)", "Potency": "inactive"}, {"smiles": "O=C(CCC(=O)c1ccc(F)cc1)OCc1nnc(-c2ccc([N+](=O)[O-])cc2)o1", "Potency": "inconclusive: 89.1 µM [inhibitor, single point]"}, {"smiles": "O=C(CNC(=O)c1ccc(Br)o1)NNC(=O)c1n[nH]c(=O)c2ccccc12", "Potency": "inconclusive: 79.4 µM [inhibitor, single point]"}, {"smiles": "COc1cc(CNCCNC(=O)c2nonc2N)ccc1OCc1ccc(Cl)cc1", "Potency": "inconclusive: 50.1 µM [inhibitor, partial curve]"}, {"smiles": "COc1ccccc1NS(=O)(=O)c1cccc(C(=O)N2CCN(C/C=C/c3ccccc3)CC2)c1", "Potency": "inconclusive: 70.8 µM [inhibitor, single point]"}, {"smiles": "CCOC(=O)C(=O)N1CCN(c2nc(-c3ccc(Cl)cc3)cs2)CC1", "Potency": "inconclusive: 70.8 µM [inhibitor, single point]"}, {"smiles": "Cc1ccc(C2=NOC(=O)/C2=C\\C=C\\c2ccccc2)cc1", "Potency": "active: 35.5 µM"}, {"smiles": "Cn1cnc([N+](=O)[O-])c1Nc1cccc(O)c1", "Potency": "inconclusive: 89.1 µM [inhibitor, single point]"}, {"smiles": "CCOC(=O)C1CCCN(C2=NC(=O)/C(=C/c3ccc(O)c(OCC)c3)S2)C1", "note": "(stereo unspecified)", "Potency": "inactive"}, {"smiles": "O=C(CN1CCOc2ccccc21)NCc1ccc(Cl)cc1", "Potency": "inconclusive: 79.4 µM [inhibitor, single point]"}, {"smiles": "COc1ccc(CCN(C)CCCN2CC(c3ccccc3)CC2=O)cc1OC", "note": "(stereo unspecified)", "Potency": "inconclusive: 79.4 µM [inhibitor, single point]"}, {"smiles": "O=C(N/N=C/c1ccc(Br)s1)c1cccnc1", "Potency": "inactive"}, {"smiles": "COc1ccccc1/C=C(/C(=O)NCCCn1ccnc1)c1ccccc1", "Potency": "inconclusive: 39.8 µM [inhibitor, full curve]"}, {"smiles": "COc1ccc(-c2cnnc(N/N=C/c3ccc(OC)c(OC)c3)n2)cc1", "Potency": "inconclusive: 70.8 µM [inhibitor, partial curve, poor fit]"}, {"smiles": "CC(OC(=O)C1CSC2(c3ccc(F)cc3)CCC(=O)N12)C(=O)NC(N)=O", "note": "(stereo unspecified)", "Potency": "inactive"}, {"smiles": "COC(=O)C1=C(C)N(Cc2ccccc2)C(=NCC2CC2)N[C@H]1c1ccc(Br)cc1", "Potency": "inconclusive: 89.1 µM [inhibitor, single point]"}, {"smiles": "c1ccc(Cn2nnnc2C(c2cccs2)N2CCOCC2)cc1", "note": "(stereo unspecified)", "Potency": "inconclusive: 79.4 µM [inhibitor, partial curve]"}, {"smiles": "COc1cccc(CN(C)C(=O)c2ccccc2Sc2ccccc2C#N)c1", "Potency": "inconclusive: 79.4 µM [inhibitor, single point]"}, {"smiles": "O=S(=O)(c1cc(O)ccc1O)c1cccc2c(S(=O)(=O)c3cc(O)ccc3O)cccc12", "Potency": "active: 11.2 µM"}, {"smiles": "O=C(NCCc1c[nH]c2ccccc12)C1CCN(S(=O)(=O)c2ccc(F)cc2)CC1", "Potency": "inactive"}, {"smiles": "COc1ccc(CNC2CCCC2)c(OC)c1OC", "Potency": "inactive"}, {"smiles": "CCOC(=O)c1c(CSc2ccc(CC)cc2)oc2ccc(O)c(CN(C)C)c12", "Potency": "inconclusive: 50.1 µM [inhibitor, partial curve]"}, {"smiles": "Cc1cc(C(=O)N/N=C2\\CC(=O)c3ccccc32)c(C)n1-c1ccccc1", "Potency": "inconclusive: 70.8 µM [inhibitor, single point]"}, {"smiles": "O=C1C(=O)N(CCN2CCOCC2)C(c2ccc(Cl)c(Cl)c2)/C1=C(/O)c1ccc2c(c1)OCO2", "note": "(stereo unspecified)", "Potency": "inactive"}, {"smiles": "CC1Sc2ccc(S(=O)(=O)CCC(=O)NC3CCCC(C)C3C)cc2NC1=O", "note": "(stereo unspecified)", "Potency": "inactive"}, {"smiles": "C(=N\\N1CCN(Cc2cccc3ccccc23)CC1)/c1cccnc1", "Potency": "active: 39.8 µM"}, {"smiles": "NS(=O)(=O)c1ccc(CCNC(=O)c2ccc[nH]c2=S)cc1", "Potency": "inactive"}, {"smiles": "Cc1nc2c3cc(F)ccc3n(Cc3ccccc3F)c2s1", "Potency": "active: 50.1 µM"}, {"smiles": "COc1ccc(OC)c(NS(=O)(=O)c2ccc3c(c2)n(C)c(=O)n3C)c1", "Potency": "inconclusive: 89.1 µM [inhibitor, single point]"}, {"smiles": "Cc1cc(NC(=O)COC(=O)CCS(=O)(=O)c2cc(Cl)ccc2Cl)no1", "Potency": "inactive"}, {"smiles": "Cc1ccsc1C1C(C#N)=C(N)OC2=C1C(=O)CCC2", "note": "(stereo unspecified)", "Potency": "inactive"}, {"smiles": "COc1ccc(CN2C(=O)c3cccnc3C2=O)cc1S(=O)(=O)NCc1ccc(C)o1", "Potency": "inconclusive: 79.4 µM [inhibitor, single point]"}, {"smiles": "O=C(CSc1ncn[nH]1)N1N=C2/C(=C/c3ccccc3)CCCC2C1c1ccccc1", "note": "(stereo unspecified)", "Potency": "inactive"}, {"smiles": "Cc1ccccc1-n1c(SCc2csc(Nc3ccccc3)n2)nnc1-c1cccnc1", "Potency": "inconclusive: 44.7 µM [inhibitor, partial curve]"}, {"smiles": "CN1CCN(Cc2coc3c(Cl)cc(Cl)cc3c2=O)CC1", "Potency": "active: 50.1 µM"}]}]}
